The series deals with the molecule itself. The series is described as follows: thioflavin T fluorescence of fibril formation + atomic force microscopy; 40 μM β2m, 25 mM sodium phosphate pH 7.4, 10 μM ThT, 37 °C, stirred, air-water interface present, no seeds; self-association into oligomers and amyloid fibrils.

B1: D76N β2-microglobulin (natural protein)
chain: not shown
notes: β2-microglobulin, human, naturally occurring variant D76N; also called D76N variant; variant β2m
Turning to B1, the binding result is reported as “binds”.

(Values after PMC3829406, “Structure, Folding Dynamics, and Amyloidogenesis of D76N β2-Microglobulin” (The Journal of Biological Chemistry, 2013).)
